# About 7,200 (1.8%) of roughly 410,000 compounds were called active. This list was built around the results that the source calls inconclusive (neither active nor inactive); the mix of calls is not that of the screen. The call rests on the fitted dose curve; in most records, active means well fitted activation curve with a large enough effect; inconclusive means small, poorly fitted or top-dose-only effect, or another doubt; inactive means no such curve, though single readings can be large or run the other way. No potency is given beside an inconclusive call; the fits are too rough.
# Assay: qHTS of TDP-43 Inhibitors; further: nearly all actives have a fitted effect of over 50% in size; on growth rescue (activation): % of control where 0% means no effect
# Conditions: TDP-43 expressing yeast growth rescue, BacTiter-Glo, 24 h; growth rescue (activation): at 46.1 µM (top of the series) unless noted
# In short: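 Growth rescue of TDP-43-toxic yeast measured as ATP luminescence (BacTiter-Glo). Cells grown to mid-log in raffinose, induced in galactose at OD600=0.02, exposed to compound 24 hr at 30 deg C.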
# Potency means the concentration at half of the fitted maximal effect; tags describe the fitted curve by direction and shape.
Compound,Potency,growth rescue (activation)
Cc1ccc(Cl)c(NC(=O)COC(=O)c2nn(-c3ccccc3)cc2O)c1Cl,"inconclusive [activator, full curve, poor fit]",
CN(C)c1ccc(/C=N/OC(=O)Nc2ccccc2Cl)cc1,"inconclusive [activator, partial curve]",
COCCCNC(=S)N/N=C/c1ccc2c(c1)OCO2,"inconclusive [activator, partial curve]",
N#Cc1nc(-c2cccs2)oc1NCc1ccc2c(c1)OCO2,active: 28.2 µM,
CN(C(=O)Nc1cccc([N+](=O)[O-])c1)c1ccccc1,"inconclusive [activator, partial curve]",
c1ccc2c(c1)ncn2CCC1CCCCC1,"inconclusive [activator, full curve]",
COc1ccc(-c2nc3scc(CCNS(=O)(=O)c4cc(F)ccc4OC)n3n2)cc1OC,"inconclusive [activator, partial curve]",
O=c1oc2cc(O)ccc2s1,"inconclusive [activator, full curve, poor fit]",
CC1=CC2=NC(=O)/C(=C\c3cccn3CCOc3cc(C)cc(C)c3)C(=N)N2O1,"inconclusive [activator, full curve]",
N#Cc1nc(-c2ccccc2Cl)oc1NCC1CCCO1 (centres undefined),"inconclusive [activator, single point]",
CC(O)(c1ccc(F)c(F)c1)c1nc(-c2cccc(F)c2)cs1 (centres undefined),,inconclusive: -92% [activator]
CCC(C)Nc1nc2c(c(=O)n(C)c(=O)n2C)n1Cc1ccc(Cl)cc1 (centres undefined),"inconclusive [activator, partial curve, poor fit]",
CN(CC(=O)Nc1cccc2c1CCCC2)S(=O)(=O)c1ccccc1,"inconclusive [activator, single point]",
O=C(COC(=O)c1cnc(Cl)c(Cl)c1)Nc1cccc(S(=O)(=O)N2CCOCC2)c1,"inconclusive [activator, partial curve]",
CCOC(=O)c1ccc(NC(=O)c2nc[nH]c2C(=O)NCCCCCNC(=O)OC(C)(C)C)cc1,inactive,
Cc1nc(Cl)sc1C(=O)Nc1cccc(Cl)c1,active: 14.1 µM,
CCc1cccc(NC(=O)c2cc3c(=O)[nH]c4ccccc4c3n2C)c1,inactive,
CCOC(=O)c1ccc(NC(=O)c2cn(CCC#N)nc2-c2ccc3c(c2)OCCO3)cc1,"inconclusive [activator, single point]",
O=C(NC(=S)NCc1ccccc1)c1cccs1,active: 12.6 µM,

# Source: PubChem BioAssay AID652104 (National Center for Advancing Translational Sciences (NCATS), 2013)
